Where two headings read alike, the source gives them in different places.
Experiments:
[1] = test system: cells expressing markers characteristic of the pancreatic endocrine lineage; test: Screening of BIOMOL Kinase Inhibitor Library, real-time PCR (Example 7); settings: for Ratio vs. Control: Insulin to Glucagon / Ratio vs. Control: MAFA to Arx4: 4 μM, six days; for fold induction at 4 µM: Homo sapiens, 144 h
[2] = test system: cells expressing markers characteristic of the pancreatic endocrine lineage; test: Effect of six cyclin dependent kinase inhibitors on insulin, glucagon, MAFA and ARX4 expression, real-time PCR (Example 8); format: cell-based, human; settings: for Arx4 expression, fold change relative to vehicle treated control / Glucagon expression, fold change relative to vehicle treated control / Insulin expression, fold change relative to vehicle treated control / MAFA expression, fold change relative to vehicle treated control: four days; for insulin expression (in words): at the concentrations tested; for MAFA expression (in words): at the concentrations tested (0.6125, 1.25, 5.0 μM)
Description: We tested 6 inhibitors: PubChem ID#5330812 (EMD cat#217714), PubChem ID#4566 (EMD cat#217713), PubChem ID#5330797 (EMD cat#219476), PubChem ID#73292 (EMD cat#341251), PubChem ID#4592 (EMD cat#495620), and PubChem ID#160355 (EMD cat #557360). […] All samples were treated in duplicate. […] Results are expressed as the fold change relative to the vehicle treated control, as measured by real-time PCR.

[3] = test system: cells expressing markers characteristic of the pancreatic endocrine lineage; test: Screening of EMD Kinase Inhibitor Library I for MAFA expression, real-time PCR (Example 10); format: cell-based; settings: for Gene Induction vs. H1: MAFa: 2.5 μM, days 1, 3, 5 of stage 5, fold increase versus untreated H1 human embryonic stem cells
[4] = read-out: Ratio vs. Control: Insulin to Glucagon
[5] = read-out: Ratio vs. Control: MAFA to Arx4

Cl.O=S(=O)(c1cccc2c(Cl)cccc12)N1CCCNCC1 [Well E7, ML-9]
Ratio vs. Control: Insulin to Glucagon [1]: 4.8
Ratio vs. Control: MAFA to Arx4 [1]: 0.2

C=CC(=O)c1ccc2ccccc2c1 [Well G4, ZM 449829]
Ratio vs. Control: Insulin to Glucagon [1]: 1.3
Ratio vs. Control: MAFA to Arx4 [1]: 1.6

CN(C)c1ccc(C=C2C(=O)Nc3ccccc32)cc1 [Well F6, SU 4312]
Ratio vs. Control: Insulin to Glucagon [1]: 1.6
Ratio vs. Control: MAFA to Arx4 [1]: 1.2

CC1=C(O)C(=O)[C@@H]2O[C@@H]2C1=O [Well H1, Terreic acid]
fold induction at 4 µM ([1]; read-out: Ratio vs. Control: Insulin to Glucagon, 4 μM, six days): 3.1
fold induction at 4 µM ([1]; read-out: Ratio vs. Control: MAFA to Arx4, 4 μM, six days): 0.6

CC1CNCCN1S(=O)(=O)c1cccc2cnccc12 (centres unmarked) [Well B4, H-7]
Ratio vs. Control: Insulin to Glucagon [1]: 1.1
Ratio vs. Control: MAFA to Arx4 [1]: 2.0

CC[C@H](CO)Nc1nc(NCc2ccccc2)c2ncn(C(C)C)c2n1 [Well 160355]
Arx4 expression, fold change relative to vehicle treated control ([2]; 0.61 μM): 0.77 fold
Glucagon expression, fold change relative to vehicle treated control ([2]; 0.61 μM): 0.76 fold
Insulin expression, fold change relative to vehicle treated control ([2]; 0.61 μM): 0.9 fold
MAFA expression, fold change relative to vehicle treated control ([2]; 0.61 μM): 0.9 fold
Arx4 expression, fold change relative to vehicle treated control ([2]; 1.25 μM): 0.65 fold
Glucagon expression, fold change relative to vehicle treated control ([2]; 1.25 μM): 0.61 fold
Insulin expression, fold change relative to vehicle treated control ([2]; 1.25 μM): 1.0 fold
MAFA expression, fold change relative to vehicle treated control ([2]; 1.25 μM): 0.7 fold
Arx4 expression, fold change relative to vehicle treated control ([2]; 5.0 μM): 0.86 fold
Glucagon expression, fold change relative to vehicle treated control ([2]; 5.0 μM): 0.59 fold
Insulin expression, fold change relative to vehicle treated control ([2]; 5.0 μM): 1.1 fold
MAFA expression, fold change relative to vehicle treated control ([2]; 5.0 μM): 0.8 fold
insulin expression (in words) [2]: appeared to stimulate insulin expression
MAFA expression (in words) [2]: did not stimulate MAFA

O=c1cc(-c2ccc(O)cc2)oc2cc(O)cc(O)c12 [Well H6, Apigenin]
fold induction at 4 µM [1, 4]: 1.4
fold induction at 4 µM [1, 5]: 2.9

O=P(O)(O)C(O)c1ccc2ccccc2c1 (centres unmarked) [Well C9, Hydroxy-2-naphthalenylmethylphosphonic acid]
fold induction at 4 µM [1, 4]: 0.8
fold induction at 4 µM [1, 5]: 0.5

NC(N)=NCCNS(=O)(=O)c1cccc2cnccc12 [Well E1, HA-1004]
Ratio vs. Control: Insulin to Glucagon [1]: 1.1
Ratio vs. Control: MAFA to Arx4 [1]: 0.9

COc1ccc2c(c1)c(C1=C(c3c[nH]c4ccccc34)C(=O)NC1=O)cn2CCCN(C)C [Gö 6983]
Gene Induction vs. H1: MAFa [3]: 1.0 fold

COc1cc(/C=C(\C#N)C(N)=O)cc(CSc2nc3ccccc3s2)c1O [Well B8, AG-825]
Ratio vs. Control: Insulin to Glucagon [1]: 1.6
Ratio vs. Control: MAFA to Arx4 [1]: 0.5

COc1ccc(S(=O)(=O)N(CCO)c2ccccc2CN(C)C/C=C/c2ccc(Cl)cc2)cc1 [Well E5, KN-93]
Ratio vs. Control: Insulin to Glucagon [1]: 1.3
Ratio vs. Control: MAFA to Arx4 [1]: 1.1

GTP-14564
Gene Induction vs. H1: MAFa [3]: 0.7 fold

COc1cccc(-c2cc(=O)c3ccccc3o2)c1N [Well B1, PD-98059]
Ratio vs. Control: Insulin to Glucagon [1]: 1.6
Ratio vs. Control: MAFA to Arx4 [1]: 0.9

Cc1cc(C)c(C=C2C(=O)Nc3ccccc32)[nH]1 [VEGF Receptor 2 Kinase Inhibitor III]
Gene Induction vs. H1: MAFa [3]: 1.1 fold

Cc1ccc(-c2nn(C(C)(C)C)c3ncnc(N)c23)cc1 [Well C12, PP1]
Ratio vs. Control: Insulin to Glucagon [1]: 1.0
Ratio vs. Control: MAFA to Arx4 [1]: 0.4

Cl.Cl.NCCNc1ncc(C(N)=O)c(Nc2cccc(C(F)(F)F)c2)n1 [Syk Inhibitor II]
Gene Induction vs. H1: MAFa [3]: 0.8 fold

Oc1ccc(-c2nc(-c3ccncc3)c(-c3ccc(F)cc3)[nH]2)cc1 [Well F3, SB-202190]
fold induction at 4 µM [1, 4]: 2.6
fold induction at 4 µM [1, 5]: 2.5

C[C@@H](N)[C@H]1CC[C@H](C(=O)Nc2ccncc2)CC1 [Well G11, Y-27632]
fold induction at 4 µM [1, 4]: 1.9
fold induction at 4 µM [1, 5]: 0.6

NS(=O)(=O)c1ccc(Nc2nc(OCC3CCCCC3)c3[nH]cnc3n2)cc1 [Well 4566]
Arx4 expression, fold change relative to vehicle treated control ([2]; 0.61 μM): 0.78 fold
Glucagon expression, fold change relative to vehicle treated control ([2]; 0.61 μM): 0.77 fold
Insulin expression, fold change relative to vehicle treated control ([2]; 0.61 μM): 1.0 fold
MAFA expression, fold change relative to vehicle treated control ([2]; 0.61 μM): 1.0 fold
Arx4 expression, fold change relative to vehicle treated control ([2]; 1.25 μM): 0.78 fold
Glucagon expression, fold change relative to vehicle treated control ([2]; 1.25 μM): 0.90 fold
Insulin expression, fold change relative to vehicle treated control ([2]; 1.25 μM): 1.1 fold
MAFA expression, fold change relative to vehicle treated control ([2]; 1.25 μM): 0.8 fold
Arx4 expression, fold change relative to vehicle treated control ([2]; 5.0 μM): 0.69 fold
Glucagon expression, fold change relative to vehicle treated control ([2]; 5.0 μM): 0.96 fold
Insulin expression, fold change relative to vehicle treated control ([2]; 5.0 μM): 1.1 fold
MAFA expression, fold change relative to vehicle treated control ([2]; 5.0 μM): 1.0 fold
insulin expression (in words) [2]: appeared to stimulate insulin expression

N#CC(C#N)=C(N)/C(C#N)=C/c1cc(O)c(O)c(O)c1 [Well C3, Tyrphostin 51]
Ratio vs. Control: Insulin to Glucagon [1]: 1.3
Ratio vs. Control: MAFA to Arx4 [1]: 0.9

O=C1c2ccccc2-[n+]2ccc3c([nH]c4ccccc43)c21.[Cl-] [Well 73292]
Arx4 expression, fold change relative to vehicle treated control ([2]; 0.61 μM): 0.38 fold
Glucagon expression, fold change relative to vehicle treated control ([2]; 0.61 μM): 0.29 fold
Insulin expression, fold change relative to vehicle treated control ([2]; 0.61 μM): 0.7 fold
MAFA expression, fold change relative to vehicle treated control ([2]; 0.61 μM): 0.7 fold
Arx4 expression, fold change relative to vehicle treated control ([2]; 1.25 μM): 0.42 fold
Glucagon expression, fold change relative to vehicle treated control ([2]; 1.25 μM): 0.25 fold
Insulin expression, fold change relative to vehicle treated control ([2]; 1.25 μM): 1.0 fold
MAFA expression, fold change relative to vehicle treated control ([2]; 1.25 μM): 1.3 fold
Arx4 expression, fold change relative to vehicle treated control ([2]; 5.0 μM): 0.33 fold
Glucagon expression, fold change relative to vehicle treated control ([2]; 5.0 μM): 0.13 fold
Insulin expression, fold change relative to vehicle treated control ([2]; 5.0 μM): 0.8 fold
MAFA expression, fold change relative to vehicle treated control ([2]; 5.0 μM): 3.1 fold
MAFA expression (in words) [2]: stimulated MAFA expression

CN(C)CCCn1cc(C2=C(c3c[nH]c4ccccc34)C(=O)NC2=O)c2ccccc21 [Well D7, GF 109203X]
Ratio vs. Control: Insulin to Glucagon [1]: 1.7
Ratio vs. Control: MAFA to Arx4 [1]: 0.6

N#CC(C#N)=Cc1cc(O)c(O)c([N+](=O)[O-])c1 [Well C5, Tyrphostin AG 1288]
Ratio vs. Control: Insulin to Glucagon [1]: 1.0
Ratio vs. Control: MAFA to Arx4 [1]: 1.1

O=c1c(-c2ccc(O)cc2)coc2cc(O)ccc12 [Well F12, Daidzein]
fold induction at 4 µM [1, 4]: 1
fold induction at 4 µM [1, 5]: 1.4

O=c1cc(N2CCNCC2)oc2c(-c3ccccc3)cccc12 [LY 303511]
fold induction at 2.5 µM ([3]; Embryonic stem cell, days 1, 3, 5 of stage 5, fold increase versus untreated H1 human embryonic stem cells, read-out: Gene Induction vs. H1: MAFa): 1.7

CCN(CC)CCCCN1c2ccccc2Oc2ccc(Cl)cc21 [Akt Inhibitor X]
Gene Induction vs. H1: MAFa [3]: 1.4 fold

CC(C)c1cc(/C=C(\C#N)C(=O)NCCCc2ccccc2)cc(C(C)C)c1O [Well G3, SU1498]
Ratio vs. Control: Insulin to Glucagon [1]: 2.0
Ratio vs. Control: MAFA to Arx4 [1]: 1.6

O=S(=O)(c1cccc2cnccc12)N1CCCNCC1 [Well E2, HA-1077]
fold induction at 4 µM [1, 4]: 0.8
fold induction at 4 µM [1, 5]: 0.8

Cn1cnc2nc(NCCO)nc(NCc3ccccc3)c21 [Well E11, iso-Olomoucine]
Ratio vs. Control: Insulin to Glucagon [1]: 1.0
Ratio vs. Control: MAFA to Arx4 [1]: 0.3

Nc1nc(Nc2ccc(S(N)(=O)=O)cc2)nn1C(=S)Nc1c(F)cccc1F [Well 5330812]
Arx4 expression, fold change relative to vehicle treated control ([2]; 0.61 μM): 0.68 fold
Glucagon expression, fold change relative to vehicle treated control ([2]; 0.61 μM): 0.26 fold
Insulin expression, fold change relative to vehicle treated control ([2]; 0.61 μM): 0.9 fold
MAFA expression, fold change relative to vehicle treated control ([2]; 0.61 μM): 46.3 fold
Arx4 expression, fold change relative to vehicle treated control ([2]; 1.25 μM): 0.66 fold
Glucagon expression, fold change relative to vehicle treated control ([2]; 1.25 μM): 0.31 fold
Insulin expression, fold change relative to vehicle treated control ([2]; 1.25 μM): 1.3 fold
MAFA expression, fold change relative to vehicle treated control ([2]; 1.25 μM): 209.2 fold
Arx4 expression, fold change relative to vehicle treated control ([2]; 5.0 μM): 0.92 fold
Glucagon expression, fold change relative to vehicle treated control ([2]; 5.0 μM): 4.71 fold
Insulin expression, fold change relative to vehicle treated control ([2]; 5.0 μM): 66.3 fold
MAFA expression, fold change relative to vehicle treated control ([2]; 5.0 μM): 2909.9 fold
insulin expression (in words) [2]: appeared to stimulate insulin expression
MAFA expression (in words) [2]: stimulated MAFA expression

COCc1cc(O)c(O)c(O)c1-c1c(COC)cc(O)c(O)c1O [Well G7, 2,2′,3,3′,4,4′-Hexahydroxy-1,1′-biphenyl-6,6′-dimethanol dimethyl ether]
fold induction at 4 µM [1, 4]: 4.6
fold induction at 4 µM [1, 5]: 0.2

COc1cc2ncnc(Nc3ccc(Oc4ccccc4)cc3)c2cc1OC [Src Kinase Inhibitor I]
Gene Induction vs. H1: MAFa [3]: 2.3 fold

Cn1cnc2c(NCc3ccccc3)nc(NCCO)nc21 [Well 4592]
Arx4 expression, fold change relative to vehicle treated control ([2]; 0.61 μM): 0.61 fold
Glucagon expression, fold change relative to vehicle treated control ([2]; 0.61 μM): 0.81 fold
Insulin expression, fold change relative to vehicle treated control ([2]; 0.61 μM): 0.9 fold
MAFA expression, fold change relative to vehicle treated control ([2]; 0.61 μM): 0.9 fold
Arx4 expression, fold change relative to vehicle treated control ([2]; 1.25 μM): 0.54 fold
Glucagon expression, fold change relative to vehicle treated control ([2]; 1.25 μM): 0.70 fold
Insulin expression, fold change relative to vehicle treated control ([2]; 1.25 μM): 1.0 fold
MAFA expression, fold change relative to vehicle treated control ([2]; 1.25 μM): 1.0 fold
Arx4 expression, fold change relative to vehicle treated control ([2]; 5.0 μM): 0.77 fold
Glucagon expression, fold change relative to vehicle treated control ([2]; 5.0 μM): 1.08 fold
Insulin expression, fold change relative to vehicle treated control ([2]; 5.0 μM): 1.3 fold
MAFA expression, fold change relative to vehicle treated control ([2]; 5.0 μM): 0.6 fold
insulin expression (in words) [2]: appeared to stimulate insulin expression
MAFA expression (in words) [2]: did not stimulate MAFA

Reference: US9234178B2, “Differentiation of human pluripotent stem cells” (Janssen Biotech, Inc., priority 2008, dated 2016)
